The results in this text go back to ChEMBL document CHEMBL4888484, “Replenishing the malaria drug discovery pipeline: Screening and hit evaluation of the MMV Hit Generation Library 1 (HGL1) against asexual blood stage Plasmodium falciparum ,using a nano luciferase reporter read-out” (2022).

Structures are written as SMILES. Out of some 150,000 compounds screened, about 540 (0.36%) showed an effect of 50% or more. The list shows a part of the results.

This assay has as its system Plasmodium falciparum. Kind of assay: Primary screen in NF54 nanoGlo assay, in single point, at 2uM, 72h; a lower Z score goes with more inhibition. It counts as functional, Erythrocyte. The following applies: timepoint 72 hour.
As usually defined, the % Inhibition is the relative decrease from the control value, in per cent. In the case of `CCOC1CC(CC(=O)NCc2ccnc(C)n2)C1` (stereo not drawn), the “% Inhibition” value was found to be 7% and the Z score was -0.71.
For `CC(C)c1nnc(NC(=O)c2ccc3c(c2)OCCO3)s1` the same measures were 8% and -1.78.
In the same order, the values of `C[C@@H](c1ccccc1)S(=O)(=O)N(C)Cc1cccnc1C(F)(F)F` are 2% and -0.18.
For `O=C(NC1CC1)[C@@H]1CNCCN1C(=O)c1ccccc1Oc1ccccc1` the same measures were -7% and 0.7.
Regarding `Cc1ccc(-c2ncc(C)c(N(C)C)n2)c(F)c1`, the “% Inhibition” value stood at 1% and the Z score was -0.09.
For `C[C@@H](CN1CCOCC1)Nc1ccccc1S(C)(=O)=O` the same measures were -6% and 0.65.
On to `CC(=O)N[C@@H](Cc1c[nH]cn1)C(=O)N1CCc2c(nc(C)nc2N(C)C)C1`, for which the “% Inhibition” value is -10% and the Z score is recorded as 1.29.
In the same order, the values of `COC[C@H](C)NC(=O)c1nc(C(F)(F)F)ccc1Br` are -3% and 0.3.
In the same order, the values of `C[C@H]1CCCN(S(=O)(=O)NC2CCCCCC2)C1` are -6% and 0.63.
For the compound `Cc1csc(C2(NC(=O)Nc3cn[nH]c3)CCC2)n1`, the “% Inhibition” value worked out at 5% and the Z score is -0.94.
In the same order, the values of `Cc1cccc(Cn2nc(C)cc2NC(=O)NCCc2c(C)n[nH]c2C)c1` are -8% and 1.19.
In the same order, the values of `Cc1nsc2nc(-c3ncc[nH]3)c(-c3ccccc3)cc12` are -3% and 0.53.
In the same order, the values of `O=C(Cn1c(-c2ccccc2)cc2ccccc21)N1CCN(c2ccccc2O)CC1` are 13% and -1.66.
For the compound `CCOCC(C)(C)NC(=O)N(C)Cc1nc(C)c[nH]1`, the “% Inhibition” value is recorded as -9% and the Z score turned out to be 1.51.
For `Cn1nccc1C(=O)N(Cc1ccccc1)c1nc2ccccc2s1` the same measures were -5% and 0.93.
In the same order, the values of `Cc1cccnc1C(=O)N1CCCC[C@@]1(C)c1noc(C2CC2)n1` are -11% and 1.33.
For `O=S(=O)(N1CCCCC1)N1CCCN(CCn2cc(Cl)cn2)CC1` the same measures were -24% and 2.54.
As for `O=C(NCc1cnc2nccn2c1)c1cccnc1OCC(F)F`, the “% Inhibition” value is listed as -15% and the Z score turned out to be 3.
On to `CCn1c(C2CCC2)nnc1N1CCn2nc(C)nc2C1`, for which the “% Inhibition” value is on record as -2% and the Z score amounted to 0.32.
For `O=C(Cn1cnnn1)N1CCO[C@H](c2ccc(OC(F)F)cc2)C1` the same measures were -12% and 1.91.
In the same order, the values of `CO[C@@H](C)CS(=O)(=O)Nc1ccccc1Nc1ccn(C)n1` are -5% and 0.88.
In the same order, the values of `O=C(NCC1(N2CCOCC2)CCCCC1)Nc1cccc2[nH]nnc12` are -10% and 1.77.
`COc1cccc(NC(=O)c2cc(C(=O)Nc3cccc(OC)c3)cc(N3C(=O)c4ccccc4C3=O)c2)c1`: the “% Inhibition” value turned out to be 18% and the Z score is listed as -2.84.
In the same order, the values of `CCn1nncc1CNC[C@@]1(C)CC1(C)C` are -5% and 0.71.
